Structures are written as SMILES. Several values for one entry are separate records, joined by “and”; a condition that tells them apart may be missing. Equal values may be shown once.

Consider 1 compound from PMC7316778 (Nature Communications, 2020).

The target of experiment [1] is kinase targets in FES^S700C HL-60 cells (Homo sapiens, UniProt O14733). Conditions: Figure 6f; kinase MAP2K7; WEL028 1 µM.
Experiment [2] concerns the target kinase targets in FES^S700C HL-60 cells (Homo sapiens, UniProt O14976). Conditions: Figure 6f; kinase GAK; WEL028 1 µM.
The target of experiment [3] is kinase targets in FES^S700C HL-60 cells (Homo sapiens, UniProt O43318). The conditions noted are these: Figure 6f; kinase MAP3K7; WEL028 1 µM.
Experiment [4] concerns the target kinase targets in FES^S700C HL-60 cells (Homo sapiens, UniProt P00558). The conditions noted are these: Figure 6f; kinase PGK1; WEL028 1 µM.
Experiment [5] addresses kinase targets in FES^S700C HL-60 cells (Homo sapiens, UniProt P07332, S700C). The conditions noted are these: Figure 6f; kinase FES; WEL028 1 µM.
Experiment [6] has as its target kinase targets in FES^S700C HL-60 cells (Homo sapiens, UniProt P14618). The conditions noted are these: Figure 6f; kinase PKM; WEL028 1 µM.
Experiment [7] concerns the target kinase targets in FES^S700C HL-60 cells (Homo sapiens, UniProt P15531). The conditions noted are these: Figure 6f; kinase NME1; WEL028 1 µM.
Experiment [8] has as its target kinase targets in FES^S700C HL-60 cells (Homo sapiens, UniProt P17858). The conditions noted are these: Figure 6f; kinase PFKL; WEL028 1 µM.
Experiment [9] has as its target kinase targets in FES^S700C HL-60 cells (Homo sapiens, UniProt P27361). Conditions: Figure 6f; kinase MAPK3; WEL028 1 µM.
Experiment [10] has as its target kinase targets in FES^S700C HL-60 cells (Homo sapiens, UniProt P28482). Conditions: Figure 6f; kinase MAPK1; WEL028 1 µM.
The target in experiment [11] is kinase targets in FES^S700C HL-60 cells (Homo sapiens, UniProt P31152). The conditions noted are these: Figure 6f; kinase MAPK4; WEL028 1 µM.
Experiment [12] deals with kinase targets in FES^S700C HL-60 cells (Homo sapiens, UniProt P36507). Conditions: Figure 6f; kinase MAP2K2; WEL028 1 µM.
For experiment [13], the target named is kinase targets in FES^S700C HL-60 cells (Homo sapiens, UniProt P46734). The conditions noted are these: Figure 6f; kinase MAP2K3; WEL028 1 µM.
Experiment [14] deals with kinase targets in FES^S700C HL-60 cells (Homo sapiens, UniProt P51812). Conditions: Figure 6f; kinase RPS6KA3; WEL028 1 µM.
The target of experiment [15] is kinase targets in FES^S700C HL-60 cells (Homo sapiens, UniProt P55263). Conditions: Figure 6f; kinase ADK; WEL028 1 µM.
Experiment [16] addresses kinase targets in FES^S700C HL-60 cells (Homo sapiens, UniProt Q01813). The conditions noted are these: Figure 6f; kinase PFKP; WEL028 1 µM.
The target of experiment [17] is kinase targets in FES^S700C HL-60 cells (Homo sapiens, UniProt Q02750). The conditions noted are these: Figure 6f; kinase MAP2K1; WEL028 1 µM.
Experiment [18] concerns the target kinase targets in FES^S700C HL-60 cells (Homo sapiens, UniProt Q13163). Conditions: Figure 6f; kinase MAP2K5; WEL028 1 µM.
Experiment [19] concerns the target kinase targets in FES^S700C HL-60 cells (Homo sapiens, UniProt Q15418). Conditions: Figure 6f; kinase RPS6KA1; WEL028 1 µM.
For experiment [20], the target named is kinase targets in FES^S700C HL-60 cells (Homo sapiens, UniProt Q2M2I8). The conditions noted are these: Figure 6f; kinase AAK1; WEL028 1 µM.
Experiment [21] concerns the target kinase targets in FES^S700C HL-60 cells (Homo sapiens, UniProt Q8IW41). Conditions: Figure 6f; kinase MAPKAPK5; WEL028 1 µM.
Experiment [22] addresses kinase targets in FES^S700C HL-60 cells (Homo sapiens, UniProt Q8NB16). The conditions noted are these: Figure 6f; kinase MLKL; WEL028 1 µM.
In experiment [23] the target is kinase targets in FES^S700C HL-60 cells (Homo sapiens, UniProt Q9BRR6). The conditions noted are these: Figure 6f; kinase ADPGK; WEL028 1 µM.

Regarding `C#CCOc1ccc(Nc2ncc(Cl)c(Nc3ccccc3NC(=O)C=C)n2)c(OC)c1` [Compound 6], the “Fold enrichment over vehicle” value in [1] is 3.329 and 3.967 and 3.371; in experiment [2], 46.597 and 48.249 and 48.210; in [3] it was 3.401 and 3.644 and 2.943; in [4] it was 3.111 and 2.913 and 2.858; in [5] it was 17.346 and 15.412 and 14.720; in [6] it was 3.367 and 4.114 and 3.701. Also, the “Fold enrichment over vehicle” value in [7] is 5.059 and 4.968 and 4.667; in experiment [8] it was 14.982 and 14.069 and 13.466; in experiment [9], 13.612 and 14.563 and 12.858; in [10] it was 101.649 and 113.458 and 99.127; in [11] it was 2.202 and 2.228 and 1.702; in [12], 68.904 and 88.929 and 69.455. Moreover, the “Fold enrichment over vehicle” value was 3.609 and 4.091 and 3.689 in experiment [13]; 2.865 and 3.187 and 2.209 in experiment [14]; 19.749 and 22.347 and 18.441 in experiment [15]; 10.227 and 11.752 and 10.493 in [16]; 44.231 and 62.881 and 51.980 in [17]; 3.389 and 3.993 and 3.476 in [18]. Also, the “Fold enrichment over vehicle” value was 5.633 and 5.308 and 5.126 in [19]; 2.888 and 3.284 and 2.733 in experiment [20]; 4.753 and 5.019 and 4.438 in experiment [21]; 4.020 and 2.753 and 2.842 in [22]; 8.345 and 7.087 and 6.890 in experiment [23].
